In all, about 110,000 compounds were measured (“z-score”: median about -0.1, highest 2% from about 2 on). Some of the results follow. Calls of active or inactive are those of the source.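 How the source made its calls: active means z-score in the third read window above 3 or below -3; inactive means the rest.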
Target: Metabotropic glutamate receptor 8 (Rattus norvegicus) (UniProt P70579)
Assay: rat mGluR8 modulators via GIRK flux, primary screen, cell-based, thallium flux, HTS (AID 488969)
Settings: HEK293 rat mGluR8, GIRK (G protein-gated inwardly rectifying potassium channel) thallium flux, FluoZin2; at 10 µM; stronger effect = higher value; submaximal glutamate (EC20) added with thallium

Chain of UniProt P70579 (P70579 whole entry, looked up): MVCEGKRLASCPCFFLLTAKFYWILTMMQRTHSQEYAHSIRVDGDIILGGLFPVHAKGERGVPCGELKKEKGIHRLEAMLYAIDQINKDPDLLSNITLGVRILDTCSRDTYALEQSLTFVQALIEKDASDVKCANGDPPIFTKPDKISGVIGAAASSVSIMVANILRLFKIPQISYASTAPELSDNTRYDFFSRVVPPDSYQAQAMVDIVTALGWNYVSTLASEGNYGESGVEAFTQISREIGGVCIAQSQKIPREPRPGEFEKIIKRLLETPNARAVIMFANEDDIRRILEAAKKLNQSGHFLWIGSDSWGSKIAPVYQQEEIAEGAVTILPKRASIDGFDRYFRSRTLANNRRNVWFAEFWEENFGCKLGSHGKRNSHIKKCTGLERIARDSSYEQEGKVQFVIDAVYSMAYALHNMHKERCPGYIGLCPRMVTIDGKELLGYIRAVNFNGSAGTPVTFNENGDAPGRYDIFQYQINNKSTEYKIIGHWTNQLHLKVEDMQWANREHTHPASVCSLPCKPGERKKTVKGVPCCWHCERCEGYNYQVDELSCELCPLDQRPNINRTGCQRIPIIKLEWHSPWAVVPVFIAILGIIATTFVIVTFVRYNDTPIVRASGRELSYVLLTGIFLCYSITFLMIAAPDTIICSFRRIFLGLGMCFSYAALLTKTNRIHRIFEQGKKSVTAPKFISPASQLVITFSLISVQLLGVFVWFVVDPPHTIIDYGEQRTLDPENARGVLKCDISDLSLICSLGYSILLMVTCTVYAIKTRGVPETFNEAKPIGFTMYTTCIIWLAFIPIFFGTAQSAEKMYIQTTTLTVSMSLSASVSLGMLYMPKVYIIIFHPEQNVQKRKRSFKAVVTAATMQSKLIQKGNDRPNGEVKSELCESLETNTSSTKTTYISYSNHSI

First: COc1ccc(C(=O)c2c[nH]c3ccccc23)cc1
Second: CCOc1ccc(NC(=O)c2ccc(OC)cc2)cc1
The z-score of the first is higher: 0.89 for the first, -0.316 for the second.

First: COc1ccc2c(c1)cc1n2CCN=C1NN
Second: COc1ccc(OC)c(NC(=O)Cn2cc(C#N)c3cc(Br)ccc32)c1
The z-score of the first is higher: -0.286 for the first, -0.798 for the second.

Compared with Oc1ccc(-c2cn3c(n2)SCC3)cc1O, CCOC(=O)c1c(/N=C/c2cc(C)ccc2O)sc2c1CCN(C)C2 is higher in z-score: -0.229 for the first, 0.21 for the second.

Compared with CCN1CC(c2ccccc2)C(c2ccc(Cl)cc2)=N1 (stereo not drawn), O=C(c1ccc(Cl)cc1)N1CCN(c2cc(=O)[nH]nc2-c2ccccc2)CC1 is lower in z-score: -0.308 for the first, -0.597 for the second.

First: O=S(=O)(N/N=C/c1ccccc1OCc1ccc(Cl)cc1)c1ccccc1
Second: O=C(NCc1ccco1)c1ccc(COc2cccc3ccccc23)cc1
The z-score of the first is lower: -0.834 for the first, -0.2 for the second.

Going from COc1ccc(CCNC(=O)CSc2nnc(CNC(=O)c3cccs3)o2)cc1OC to CCC(c1nnc(SCC(=O)Nc2ccc(C(=O)Nc3ccccc3OC)cc2)o1)N(C)C (stereo not drawn), the z-score falls from -0.316 to -0.538.

Compared with O=C(c1cn(-c2ccccc2)nc1-c1cccs1)N1CCN(c2ccccc2)CC1, Cc1ccc(-c2ccc(SCC(=O)N3CCN(c4ccccc4)CC3)nn2)cc1 is lower in z-score: -0.0717 for the first, -0.105 for the second.

First: Cn1nc(-c2ccc(C(=O)NCC3CCCO3)cc2)c2ccccc2c1=O (stereo not drawn)
Second: Cc1ccc(-c2nnc(Nc3ccc(CC(N)=O)cc3)c3ccccc23)cc1
The z-score of the first is lower: -0.0748 for the first, 0.299 for the second.

First: COc1cc2c(C(=O)N3CCN(c4cccc(Cl)c4)CC3)cn(CC(C)C)c(=O)c2cc1OC
Second: CCN1CCN(C(=O)CSCc2nc(-c3ccc(OC)c(OC)c3)oc2C)CC1
The z-score of the first is lower: -0.453 for the first, 0.209 for the second.

First: CCc1ccc(N(C(=O)C(F)(F)F)C(C(=O)NC2CCCCC2)c2ccncc2)cc1 (stereo not drawn)
Second: O=C(Nc1cc(C(F)(F)F)ccc1F)C1CCCCC1
The z-score of the first is lower: -0.196 for the first, 1.81 for the second.

Compared with CCOC(=O)c1c(C)[nH]c(C(=O)N/N=C/c2ccc(Br)cc2)c1C, CCOC(=O)c1c(NC(=O)c2cc(C)oc2C)sc(C(=O)Nc2ccc(Cl)cc2)c1C is higher in z-score: -0.141 for the first, 0.127 for the second.

Going from Fc1cccc(C[n+]2csc3ccccc32)c1 to CC1(C)Cc2ccccc2C(N/N=C/c2cccc(F)c2)=N1, the z-score rises from 0.237 to 0.289.

Going from COC(=O)Cc1ccc(NC(=O)c2cccs2)cc1 to O=C(CC(NCCc1ccccc1)C(=O)O)Nc1ccc(O)cc1 (stereo not drawn), the z-score rises from 0.153 to 0.33.

Compared with CSc1cccc(NC(=O)/C=C/c2ccccc2)c1, Cc1cccc(NC(=O)NNC(=O)c2cc(-c3ccccc3Cl)nc3ccccc23)c1 is lower in z-score: -0.139 for the first, -0.409 for the second.

Compared with CC1=C(C(=O)OCc2ccccc2)C(c2ccc(N3CCOCC3)cc2)NC(=O)N1 (stereo not drawn), Cc1ccccc1C(=O)Nc1ccc(N2CCOCC2)nc1 is lower in z-score: 0.643 for the first, -0.33 for the second.

Compared with O=C(O)CCCSCC(=O)Nc1ccccc1, C/C(Cc1ccccc1)=N\NC(=O)CNC(=O)c1ccccc1 is lower in z-score: 0.633 for the first, -0.152 for the second.

Compared with Cc1ccccc1C(=O)N1CCN(c2ccc(NC(=O)CSc3ccc(Cl)cc3)cc2)CC1, O=C(NCc1ccccc1)c1cccc(OCC(=O)N2CCN(C(=O)c3ccco3)CC2)c1 is lower in z-score: 0.0427 for the first, -0.018 for the second.

First: N#Cc1c(N)nc2c(c1-c1cccs1)CCCC2
Second: CCc1nc(Cl)c(C#N)c2c1CCCC2
The z-score of the first is higher: -0.265 for the first, -0.311 for the second.

Compared with O=C(NCCCN1CCOCC1)c1cc2cc(Br)ccc2oc1=O, COCCNC(=S)N/N=C/c1ccc(N2CCOCC2)cc1 is lower in z-score: 1.36 for the first, -0.189 for the second.

Compared with c1cnc2ccc(C(c3nnnn3C3CCCC3)N3CCSCC3)cc2c1 (stereo not drawn), CCC(c1nnc(SCC(=O)Nc2ccc(C(C)=O)cc2)n1C1CCCCC1)N(C)C (stereo not drawn) is higher in z-score: -0.706 for the first, -0.0905 for the second.

First: CN(C)NC(=S)Nc1ccc2nc(-c3ccccn3)c(-c3ccccn3)nc2c1
Second: c1ccc(-n2c(-c3cccs3)nc3nc4ccccc4nc32)cc1
The z-score of the first is higher: -0.15 for the first, -0.294 for the second.

Compared with Cc1ccc(-n2cnnn2)c(S(=O)(=O)N2CCOCC2)c1, O=S(=O)(c1ccc(NC2CCCCC2)cc1)N1CCOCC1 is lower in z-score: 0.000578 for the first, -0.38 for the second.

Going from OCCCCCN=c1cc(-c2ccccc2)oc2ccc(Cl)cc12 to N=c1c2c(-c3ccccc3)c(-c3ccccc3)n(Cc3ccccc3)c2ncn1CCO, the z-score rises from -0.493 to 0.392.

Compared with COc1ccc(C(C)C)cc1S(=O)(=O)n1cnc(C)c1, CC(C)NS(=O)(=O)c1ccc(Oc2ncc(C(F)(F)F)cc2Cl)cc1 is higher in z-score: -0.0326 for the first, 0.531 for the second.

Going from O=C(c1nn2c(C(F)(F)F)cc(-c3cccs3)nc2c1Br)N1CCCc2ccccc21 to O=C1C(Oc2ccccc2)C(c2cccs2)N1Cc1ccc2c(c1)OCO2 (stereo not drawn), the z-score rises from -0.256 to 0.237.

First: NC1(N)OC(CN2C(=O)c3ccccc3C2=O)CS1 (stereo not drawn)
Second: CNC(=O)CN1C(=O)NC2(CCc3ccccc32)C1=O (stereo not drawn)
The z-score of the first is higher: 0.67 for the first, 0.183 for the second.

First: Cc1ccc(C(=O)N(NC2=NS(=O)(=O)c3ccccc32)S(=O)(=O)c2ccc(C)cc2)cc1
Second: Cc1ccc(S(=O)(=O)Nc2cc3c(C(=O)Nc4ccccc4)c(C)oc3c3ccccc23)cc1
The z-score of the first is lower: 0.0316 for the first, 0.414 for the second.

Compared with CCN(CC)CC(O)COc1ccc2c(c1)c(C(C)=O)c(C)n2-c1ccccc1 (stereo not drawn), Cc1ccc(-c2nnn(CC(=O)N(c3ccccc3)C(C(=O)NC(C)(C)C)c3cccs3)n2)o1 (stereo not drawn) is lower in z-score: 2.25 for the first, -0.243 for the second.

Going from O=C(NCCSCc1ccccc1)c1ccc(C2SCC(=O)N2Cc2ccccc2)cc1 (stereo not drawn) to NC(=O)c1ccc(-n2nnnc2SCc2ccccc2)cc1, the z-score falls from 0.575 to -0.34.

Going from O=C(COC(=O)c1cc(S(=O)(=O)N2CCc3ccccc3C2)ccc1Cl)NCc1ccco1 to CC(=O)Nc1ccc(S(=O)(=O)NCC(=O)OCc2cc(=O)oc3ccc4ccccc4c23)cc1, the z-score falls from -0.0734 to -0.088.

First: COc1ccccc1Nc1nc(N)nc(-c2cc3ccccc3o2)n1
Second: c1ccc(-c2nc3ccccc3c3nncn23)cc1
The z-score of the first is lower: -0.352 for the first, 0.321 for the second.

First: CC1CCCC(C)N1C(=O)COc1ccc(-c2nnco2)cc1 (stereo not drawn)
Second: COc1ccccc1OCc1ccc(C(=O)OCC2CCCO2)o1 (stereo not drawn)
The z-score of the first is lower: -0.127 for the first, -0.00893 for the second.

First: Cc1ccc(S(=O)(=O)N/N=C/c2cnn(C)c2C)cc1
Second: COc1cc(NS(=O)(=O)c2ccc(F)cc2)c(C(=O)O)cc1OC
The z-score of the first is higher: -0.11 for the first, -0.676 for the second.

First: O=C(/C=C/c1ccco1)NC(=S)Nc1ccc(Cl)cn1
Second: Cn1c(SCC(=O)N/N=C/C=C\c2ccco2)nc2ccccc21
The z-score of the first is higher: 1.63 for the first, 0.668 for the second.

Compared with CNC(=O)NC(=O)C(C)OC(=O)c1c(C)noc1C (stereo not drawn), CCOC(=O)c1c(-c2cccs2)csc1NC(=O)COC(=O)c1c(C)noc1C is lower in z-score: 0.197 for the first, -0.376 for the second.

First: Cc1ccc(Nc2cnn(C34CC5CC(CC(CC(=O)O)(C5)C3)C4)c(=O)c2Cl)cc1
Second: O=C(CC12CC3CC(CC(C3)C1)C2)Nc1ccc2c(c1)COC2=O
The z-score of the first is higher: -0.186 for the first, -0.441 for the second.

First: CCc1cccc2c(C(=O)COC(=O)c3ccccc3)c[nH]c12
Second: O=C(O)Cn1c(SCCOc2ccccc2)nc2ccccc21
The z-score of the first is higher: 0.151 for the first, -0.0566 for the second.

Compared with COc1ccc(S(=O)(=O)N2CCN(CC(=O)Nc3cc(OC)cc(OC)c3)CC2)cc1, Cc1cccc(NC(=O)Cn2cnc3sc(C)c(S(=O)(=O)N4CCC(C)CC4)c3c2=O)n1 is lower in z-score: 0.00976 for the first, -1.5 for the second.

Compared with CCOC(=O)N1CCN(C(=O)CN(C2CCCCC2)S(=O)(=O)c2c(C)cc(C)cc2C)CC1, CCOC(=O)C1CCN(C(=O)c2cccc(NC(=O)C(CC)CC)c2)CC1 is higher in z-score: -0.0705 for the first, 0.433 for the second.

Compared with CC(=O)N1C(=O)C(=C2C=C(C)OC(C)=C2)c2ccccc21, Cc1ccc(NC(=O)c2cc(-c3ccccc3)nn2-c2ccccc2)c(Br)c1 is higher in z-score: 0.42 for the first, 0.496 for the second.

Compared with CC(Sc1nc2cc([N+](=O)[O-])ccc2n1-c1ccc(F)cc1)C(=O)NCc1ccc2c(c1)OCO2 (stereo not drawn), Cc1nc2ccccn2c1/C(O)=C1\C(=O)C(=O)N(CCCN(C)C)C1c1ccc(F)cc1 (stereo not drawn) is lower in z-score: -0.0673 for the first, -0.187 for the second.

Compared with COc1ccc(-c2csc3nc(-c4ccc(C)cc4)oc(=O)c23)cc1OC, COc1ccc(-c2nc3c([nH]2)c(=O)n(C)c(=O)n3C)c(OC)c1 is lower in z-score: 0.338 for the first, -0.154 for the second.

First: OC(COCC1COc2ccccc2O1)CN1CCN(c2ccccc2F)CC1 (stereo not drawn)
Second: O=[N+]([O-])c1ccc(N2CCCCC2)cc1NCCOc1ccccc1
The z-score of the first is lower: -0.377 for the first, 0.0562 for the second.

First: CC(C(=O)N1CCN(c2ccccc2)CC1)N1C(=O)C2CC=CCC2C1=O (stereo not drawn)
Second: O=C1C2CCCCN2C(=O)N1CCN1CCN(c2ccc([N+](=O)[O-])cc2)CC1 (stereo not drawn)
The z-score of the first is higher: 0.028 for the first, -0.2 for the second.

Compared with C/C(=N\NC(=O)CSc1nnc(C)s1)c1ccc(Cl)cc1, CN(C)S(=O)(=O)c1ccc(C(=O)Nc2nnc(SCc3ccccc3)s2)cc1 is lower in z-score: -0.156 for the first, -0.317 for the second.

First: Cc1ccc(NC(=O)CSc2nc(N)c3cc4c(nc3n2)CCCC4)cc1
Second: CCn1c(SCC(=O)Nc2nc(C)cs2)nnc1-c1ccoc1C
The z-score of the first is lower: -1.03 for the first, -0.0665 for the second.

First: Cc1c(C(=O)O)cccc1-c1ccc(/C=N/Nc2ccc(Br)cc2)o1
Second: O=C(c1nnc(-c2ccncc2)o1)c1ccccc1Cl
The z-score of the first is lower: -0.485 for the first, 0.577 for the second.

Compared with CCOC(=O)Cn1c(-c2cccnc2Cl)nc2cc(C)c(C)cc21, Cc1ccc(-c2csc(=S)n2CC(=O)OCC(=O)NC(C)C(C)C)cc1 (stereo not drawn) is lower in z-score: 0.0323 for the first, -0.423 for the second.

First: C=CCn1c(=O)c2c(nc3n2CC(C)CN3c2cccc(OC)c2)n(C)c1=O (stereo not drawn)
Second: COc1ccc(CNc2nc3c(c(=O)[nH]c(=O)n3C)n2CCCc2ccccc2)cc1
The z-score of the first is lower: -0.52 for the first, 1.37 for the second.

Going from COC(=O)c1cc(C(=O)Nc2nnc(CC(C)C)s2)cc([N+](=O)[O-])c1 to CC1(C)CC(=O)c2sc(NC(=O)CCS(=O)(=O)c3ccccc3)nc2C1, the z-score rises from -0.666 to -0.0018.

First: CCCN1CCC(=NNc2ccc(S(=O)(=O)N3CCOCC3)cc2[N+](=O)[O-])CC1
Second: Nc1nonc1C(=O)OCC(=O)N1CCOCC1
The z-score of the first is higher: 0.0209 for the first, -0.145 for the second.

Compared with Cc1cn2c(-c3ccncc3)nnc2s1, Cc1n[nH]c(=O)nc1NCc1ccccc1 is lower in z-score: -0.271 for the first, -0.734 for the second.

Going from CCOCCn1c(SCCCc2ccccc2)nc2c1c(=O)[nH]c(=O)n2C to CC(C)N(Cc1cc2ccccc2[nH]c1=O)C(=O)C1CCCCC1, the z-score rises from -0.4 to 0.128.

In the case of O=[N+]([O-])c1ccccc1C1Nc2cccc3cccc(c23)N1, the z-score is reported as 0.208.

O=C1CC(c2ccco2)Sc2nc3ccccc3n21 (stereo not drawn) was tested, and the z-score was active: 3.22.

Reference: PubChem BioAssay AID488969 (Vanderbilt High Throughput Screening Facility, 2010)
